Source: PubChem BioAssay AID720523 (National Center for Advancing Translational Sciences (NCATS), 2013)
Out of some 1,400 compounds screened, about 25 (2%) were called active. The inconclusive results got no clear call from the source; some entries with a clear call stand among them for comparison. Calls come from the whole dose curve; as a rule, active = well fitted inhibition curve with a large enough effect; inconclusive = small, poorly fitted or top-dose-only effect; inactive = flat fitted curve, though single readings scatter. A potency beside an inconclusive call is a rough fit, not a confirmed value.

Assay: Nrf2 qHTS screen for inhibitors: A549 ARE-Fluc Cytotoxicity Counterscreen for Hit Validation
Details: A549 ARE-Fluc cells; series mostly up to 46.1 µM; activity change, negative = cytotoxicity: at the top concentration
How it was run: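 A549 ARE-Fluc cells (5000/well) pre-incubated 2 h at 37°C, then exposed to compounds 18-24 h at 37°C, 5% CO2. CellTiter Fluor added for 30 min; fluorescence (Ex 405/Em 525 nm) decrease indicates cytotoxicity. Data normalized to positive and negative controls.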
% is set by controls: 0 for no effect and ±100 for the full control effect; potency is the fitted concentration of half-maximal effect; tags give direction and shape of the fitted curve.

SMILES | Potency | activity change, negative = cytotoxicity
Cc1ccc(Cl)cc1N1CCN(C(=O)CSc2nnc3n2C(C)(C)Cc2ccccc2-3)CC1 | inconclusive: 23.1 µM [inhibitor, single point] | –
CCCCCCCCn1c2c(c(=N)c3c1CCC3)CCCC2 | inconclusive: 29.1 µM [inhibitor, single point] | –
Cn1c2c(c(=O)[nH]c1=O)C(c1cccc(O)c1)C1=C(N2)c2ccccc2C1=O (stereo not drawn) | inconclusive: 7.31 µM [inhibitor, partial curve] | –
COc1ccc(-c2csc(NC(=O)C3CCN(c4ncnc5sc(C)c(C)c45)CC3)n2)cc1OC | – | inactive: -10.4%
CC(=O)c1sc(NC(=O)C2(F)C(F)(F)C(F)(F)C(F)(F)C(F)(F)C2(F)F)nc1C | inconclusive: 9.2 µM [inhibitor, partial curve] | –
COc1ccc(CC(=O)Nc2cccc(S(=O)(=O)N3CCCCCC3)c2)cc1OC | – | inactive: -21.5%
S=C(NN=Cc1ccccn1)N(Cc1ccccn1)Cc1ccccn1 | inconclusive: 4.61 µM [inhibitor, full curve, poor fit] | –
Cc1ccc(-c2csc(Cc3nc(-c4cc5ccccc5oc4=O)cs3)n2)cc1 | – | inactive: -4.2%
O=C(NN=C(c1ccccc1)c1ccccn1)c1ccccc1 | active: 6.51 µM | –
COc1cc(OC)cc(C(=O)NNC(=O)c2ccccn2)c1 | – | inactive: -25.4%
C=CC(=O)Nc1ccc(Nc2nc(NC3CCC(N(C)C)CC3)nc3c2ncn3C(C)C)cc1 (stereo not drawn) | active: 8.2 µM | –
O=C(Nc1ccc(Cl)cc1)Nc1ccc(N2CCCC2)c(S(=O)(=O)Nc2ccccc2Cl)c1 | inconclusive: 18.4 µM [inhibitor, single point] | –
Cc1ccc(NS(=O)(=O)c2ccc(C(=O)NC3CCN(Cc4ccccc4)CC3)cc2)cc1 | – | inactive: -23.8%
COc1ccc(/C=N/NS(=O)(=O)c2ccccc2)cc1OC(=O)c1ccc(C)cc1 | – | inactive: -0.703%
Cc1ccc(Nc2c(-c3ccccn3)nc3cccc(C)n23)cc1 | inconclusive: 11.6 µM [inhibitor, partial curve] | –
CC(C)NC(=O)C1CCN(C(=O)c2cc3sccc3n2Cc2ccc(Cl)cc2)CC1 | inconclusive: 7.31 µM [inhibitor, partial curve] | –
Cc1noc(C)c1CSCC(=O)Nc1nc(-c2ccc(F)c(F)c2)cs1 | – | inactive: -18.2%
C[C@]12C=CC(=O)C=C1CC[C@@H]1[C@@H]2[C@@H](O)C[C@@]2(C)[C@H]1CC[C@]2(O)C(=O)COC(=O)CCC(=O)NCCc1ccc(O)cc1 | active: 8.2 µM | –
Cc1sc(NC(=O)Cc2ccc3c(c2)OCO3)nc1-c1ccc2c(c1)CCN2C(=O)c1ccc(F)cc1 | – | inactive: 7.79%
CCN1/C(=C/C=C/c2sc3ccccc3[n+]2CC)Sc2ccccc21 | active: 11.6 µM | –
C[C@H]1CN([C@@H](C)CO)C(=O)c2cccc(NS(=O)(=O)c3ccc(F)cc3)c2O[C@H]1CN(C)Cc1ccc(Cl)c(Cl)c1 | inconclusive: 20.6 µM [inhibitor, single point] | –
Cc1ccc(C(=O)Nc2nc(-c3ccccn3)cs2)cc1S(=O)(=O)N1CCOCC1 | inconclusive: 6.51 µM [inhibitor, partial curve] | –
CN1/C(=C\C=[N+](C)c2ccccc2)C(C)(C)c2ccccc21 | inconclusive: 16.4 µM [inhibitor, partial curve] | –

SMILES | Potency | activity change, negative = cytotoxicity
C[C@H]1C[C@@H]2[C@H]([C@@H](O)C[C@@]3(C)[C@H]2CC[C@]3(O)C(=O)CO)[C@@]2(C)C=CC(=O)C=C12 | – | inactive: -3.03%
Cc1cccc(C(=O)Nc2nc(-c3nnn(-c4cc(C)ccc4C)c3C)ns2)c1 | – | inactive: -14.1%
CC1(C)CC2CC(C)(CN2S(=O)(=O)c2ccc(C(=O)Nc3ccc(Cl)c(S(=O)(=O)N4CCOCC4)c3)cc2)C1 (stereo not drawn) | – | inactive: -11.3%
Cc1ccc(C(=O)NNC(=O)CCCN2C(=O)/C(=C/c3ccccc3Cl)SC2=S)cc1 | – | inactive: -4.08%
CN(C)CCNC(=O)c1cc2c(s1)-c1ccc(Cl)cc1SC2 | inconclusive: 0.0461 µM [inhibitor, full curve] | –
Cc1ccc(-c2noc(C3CCN(S(=O)(=O)c4ccc5c(c4)OCCO5)CC3)n2)o1 | – | inactive: -13.2%
COc1cc(OC)c(/C=C/c2ccc3ccccc3n2)c(OC)c1 | inconclusive: 14.6 µM [inhibitor, partial curve] | –
c1ccc(-c2csc3ncnc(NCC4COc5ccccc5O4)c23)cc1 (stereo not drawn) | – | inactive: -0.0293%
COc1ccc(NS(=O)(=O)c2ccc(OC)c(N(C)S(=O)(=O)c3ccc(Cl)cc3)c2)cc1 | inconclusive: 29.1 µM [inhibitor, single point] | –
Cc1cc(C)cc(NS(=O)(=O)c2ccc(Oc3ncc(C(F)(F)F)cc3Cl)cc2)c1 | inconclusive: 29.1 µM [inhibitor, single point] | –
Nc1ncnc2c(C3OC(CO)C(O)C3O)c[nH]c12 (stereo not drawn) | inconclusive: 0.291 µM [inhibitor, partial curve] | –
CCCCN(CC)S(=O)(=O)c1ccc(C(=O)Nc2nnc(-c3cccs3)o2)cc1 | inconclusive: 10.3 µM [inhibitor, partial curve] | –
CC[N+](C)(CC)CCOC(=O)C(O)(c1ccccc1)C1CCCCC1 (stereo not drawn) | active: 9.2 µM | –
COc1cccc(-c2nnc(NC(=O)c3ccc(S(=O)(=O)N(CC(C)C)CC(C)C)cc3)o2)c1 | inconclusive: 14.6 µM [inhibitor, partial curve] | –
NC(=O)c1ccccc1OCC(=O)N1CCC(Cc2ccccc2)CC1 | – | inactive: -1.01%
COc1cc2c(oc(=O)c3cc(C)cc(OC)c32)c2c(C3OC(C)C(O)C(C)(O)C3O)ccc(O)c12 (stereo not drawn) | inconclusive: 5.8 µM [inhibitor, partial curve] | –
O=S(=O)(c1cccs1)N1CCN(c2ccc(O)cc2)CC1 | inconclusive: 13 µM [inhibitor, partial curve] | –
CCN(Cc1cccc(S(=O)(=O)O)c1)c1ccc(C(=C2C=CC(=[N+](CC)Cc3cccc(S(=O)(=O)O)c3)C=C2)c2ccc(O)cc2S(=O)(=O)O)cc1 | inconclusive: 18.4 µM [inhibitor, partial curve] | –
CC(=O)OCC(=O)C1(O)CCC2C3CCC4=CC(=O)CCC4(C)C3(Cl)C(O)CC21C (stereo not drawn) | – | inactive: -12.1%
Clc1ccc(-c2noc(CSc3nnc(-c4ccncc4)n3-c3ccccc3)n2)cc1 | – | inactive: -8.97%
COc1ccc(CNC(=O)Cc2nn(C)c(=O)c3ccccc23)cc1 | – | inactive: 0%
CCc1nc(C)cn1S(=O)(=O)c1ccc(Cl)c(Cl)c1OC | – | inactive: -1.33%
COc1ccc([C@@]23Oc4cc(OC)cc(OC)c4[C@]2(O)[C@H](O)[C@H](C(=O)N(C)C)[C@H]3c2ccccc2)cc1 | inconclusive: 0.058 µM [inhibitor, full curve] | –

SMILES | Potency | activity change, negative = cytotoxicity
O=C(Nc1ccc(C(=O)NC2CCCCC2)cc1)c1cccnc1 | – | inactive: -3.07%
CC/C(=N/NC(=O)c1ccc2c(c1)OCO2)c1ccccc1O | – | inactive: -8.54%
COc1ccc(CCNc2cc(N3CCN(C(=O)c4ccccc4OC)CC3)ccc2[N+](=O)[O-])cc1OC | inconclusive: 6.51 µM [inhibitor, partial curve, poor fit] | –
COc1cccc2c1C(=O)c1c(O)c3c(c(O)c1C2=O)CC(O)(C(C)=O)CC3OC1CC(N(C)C)C(O)C(C)O1 (stereo not drawn) | inconclusive: 8.2 µM [inhibitor, partial curve] | –
CCN1/C(=C/c2sc(-c3ccccc3C)c[n+]2C)Sc2ccccc21 | inconclusive: 18.4 µM [inhibitor, partial curve] | –
CC(=O)O[C@@H]1[C@@H](O)CN[C@@H]1Cc1ccccc1 | inconclusive: 0.184 µM [inhibitor, full curve] | –
CCOC(=O)c1ccc(Nc2nc3nonc3nc2Nc2cccc(C)c2C)cc1 | inconclusive: 6.51 µM [inhibitor, partial curve] | –
C(=C\c1ccnc2ccccc12)/c1cc2c3c(c1)CCCN3CCC2 | – | inactive: -16.1%
O=c1[nH]c(=O)n(C2OC(CO)C(O)C2O)cc1F (stereo not drawn) | inconclusive: 4.61 µM [inhibitor, partial curve] | –
COc1cccc(-c2ncc3ccccc3c2COC(=O)N2CCCCC2)c1 | – | inactive: -0.709%
O=c1[nH]c(=O)n([C@@H]2O[C@H](CO)[C@@H](O)[C@H]2O)cc1F | inconclusive: 3.26 µM [inhibitor, partial curve] | –
Cc1nc2ccccc2n1-c1nc(-c2ccco2)cc(C(F)(F)F)n1 | inconclusive: 3.66 µM [inhibitor, full curve] | –
CC(C)(C)c1nc(N2CCN(C(=O)c3ccco3)CC2)c2nnn(Cc3ccccc3)c2n1 | inconclusive: 0.517 µM [inhibitor, full curve] | –
COc1ccc(CNC(=O)CSCc2cnn(-c3ccccc3)c2-n2cccc2)cc1OC | – | inactive: -21.7%
Cc1ccc(C(=O)Oc2cc(N)n(S(=O)(=O)c3ccc(F)cc3)n2)cc1 | – | inactive: -7.2%
CN(C)CCN1C(=O)c2cccc3cc([N+](=O)[O-])cc(c23)C1=O | inconclusive: 7.31 µM [inhibitor, partial curve] | –
CCOC(=O)c1sc(NC(=O)c2cc(-c3ccccc3)nc3ccccc23)c(C#N)c1C | inconclusive: 20.6 µM [inhibitor, single point] | –
CC1CCCCN1S(=O)(=O)c1ccc(C(=O)Nc2nnc(-c3ccccc3Cl)o2)cc1 (stereo not drawn) | inconclusive: 9.2 µM [inhibitor, partial curve] | –
CC(=O)N(C)C1=C(N2CCOCC2)C(=O)c2ccccc2C1=O | active: 16.4 µM | –
CC12C=CC(=O)C=C1CCC1C3CCC(O)(C(=O)CO)C3(C)CC(O)C12F (stereo not drawn) | – | inactive: -8.25%
Nc1c(Cl)ncnc1N/N=C/c1ccccn1 | inconclusive: 6.51 µM [inhibitor, partial curve] | –
COc1cc(C2CC(=O)c3c([nH]c(C(=O)OC4CCCC4)c3C)C2)cc(OC)c1OC (stereo not drawn) | inconclusive: 20.6 µM [inhibitor, single point] | –
